From the supplement of paper PMC4604168 (melanoma cell lines) come the findings set out here.

SMILES strings stand for the structures. This is one part of the list. Repeats are few or missing, and single values can be far off.

Common to all, as to assay: cell count relative to DMSO control; melanoma cells; higher = more viable cells
Common to all, as to settings: library dose: standard library concentration; 72 h

For assay [1], the system named is A101D.
Assay [2] has as its system A2058.
Assay [3] relates to A375.
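Further: cells treated in 1,536-well plates, then fixed and DAPI-stained, with nuclei counted from automated high-throughput microscope images.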

As to `Cn1c(=O)n(-c2ccc(C(C)(C)C#N)cc2)c2c3cc(-c4cnc5ccccc5c4)ccc3ncc21` + NCC(=O)Nc1ccc(-n2nc(C(F)(F)F)cc2-c2ccc3c(ccc4ccccc43)c2)cc1 [OSU03012] (first compound 0.02 µM, partner dose 5 µM), the cell count in assay [1] worked out at 63.7%; in assay [2], 56.1%; in assay [3], 39.1%.

`COc1ccc(C2=N[C@@H](c3ccc(Cl)cc3)[C@@H](c3ccc(Cl)cc3)N2C(=O)N2CCNC(=O)C2)c(OC(C)C)c1` [Nutlin-3] + CS(=O)(=O)c1ccc(C(=O)Nc2ccc(Cl)c(-c3ccccn3)c2)c(Cl)c1 [vismodegib] (first compound 0.5 µM, partner dose 5 µM): the cell count stood at 82.2% in assay [1], 116% in assay [2] and 98.8% in assay [3].

Take `CC(C)C[C@H](NC(=O)[C@H](Cc1ccccc1)NC(=O)c1cnccn1)B(O)O` [Bortezomib] + Nc1nc(F)nc2c1ncn2[C@@H]1O[C@H](CO)[C@@H](O)[C@@H]1O [fludarabine] (first compound 0.005 µM, partner dose 1 µM): the cell count in assay [1] stood at 24%; in assay [2] it was 11.7%; in assay [3], 39.3%.

Regarding `COc1ccc(C2=N[C@@H](c3ccc(Cl)cc3)[C@@H](c3ccc(Cl)cc3)N2C(=O)N2CCNC(=O)C2)c(OC(C)C)c1` [Nutlin-3] + CO[C@@H]1[C@H](N(C)C(=O)c2ccccc2)C[C@H]2O[C@]1(C)n1c3ccccc3c3c4c(c5c6ccccc6n2c5c31)C(=O)NC4 [Midostaurin] (first compound 0.5 µM, partner dose 0.4 µM), the cell count in assay [1] worked out at 53.9%; in assay [2], 67.5%; in assay [3], 74.8%.
